Test results: the supplement of paper PMC12217912
Some of the results follow. The full chains were built here from the parent and the listed change. Values near 0.05 are background.

B1: TEV protease; numbered along this chain (parent)
chain: MGESLFKGPRDYNPISSSICHLTNESDGHTTSLYGIGFGPFIITNKHLFRRNNGTLVVQSLHGVFKVKDTTTLQQHLVDGRDMIIIRMPKDFPPFPQKLKFREPQREERICLVTTNFQTKSMSSMVSDTSCTFPSGDGIFWKHWIQTKDGQCGSPLVSTRDGFIVGIHSASNFTNTNNYFTSVPKNFMELLTNQEAQQWVSGWRLNADSVLWGGHKVFMVKPEEPFQPVKEATQL

Variants of: B1
Experiment: raw area under fraction-flipped curve 0-4 h after induction (AUC4h, not background-subtracted), DNA-recorder readout of cleavage of the substrate (dimensionless); higher = more cleavage of the substrate by the protease variant
Settings: temperature: 34 °C; time window: 0-4 h after rhamnose induction
Procedure: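 In vivo DNA recorder in E. coli TOP10(DE3) ΔrhaA at 34 °C. Each TEVp single-site mutant (parent TEVp 0) is paired with a single-site variant of the 7-mer TEVs (canonical ENLYFQ|S). The substrate sits between flexible linkers in a Bxb1-sfGFP-TEVs-SsrA fusion, so cleavage stabilises Bxb1 and speeds flipping of a recombination array, read by NGS. The value is the raw area under the fraction-flipped curve over 0-4 h after rhamnose induction (AUC4h), with ≥20 reads per time point. It is not background-subtracted; inactive controls average about 0.047.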
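Further: Bxb1 expression induced with 0.2% (w/v) L-rhamnose at OD600 near 0.5, cultures sampled hourly, flipped fraction per protease–substrate barcode pair counted by paired-end Illumina sequencing.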

Variant: C20T
- area with substrate ANLYFQS: 0.0576
- area with substrate DNLYFQS: 0.0894
- area with substrate FNLYFQS: 0.0591
- area with substrate GNLYFQS: 0.0535
- area with substrate HNLYFQS: 0.0582
- area with substrate INLYFQS: 0.0523
- area with substrate KNLYFQS: 0.0608
- area with substrate LNLYFQS: 0.0666
- area with substrate MNLYFQS: 0.0642
- area with substrate NNLYFQS: 0.0731
- area with substrate PNLYFQS: 0.0624
- area with substrate QNLYFQS: 0.0753
- area with substrate RNLYFQS: 0.0406
- area with substrate SNLYFQS: 0.0555
- area with substrate TNLYFQS: 0.0617
- area with substrate WNLYFQS: 0.0699
- area with substrate YNLYFQS: 0.0598

Variant: C20V
- area with substrate ANLYFQS: 0.0631
- area with substrate DNLYFQS: 0.0866
- area with substrate HNLYFQS: 0.0633
- area with substrate INLYFQS: 0.0802
- area with substrate KNLYFQS: 0.0818
- area with substrate LNLYFQS: 0.0597
- area with substrate NNLYFQS: 0.0751
- area with substrate RNLYFQS: 0.0669
- area with substrate SNLYFQS: 0.0743
- area with substrate TNLYFQS: 0.0779
- area with substrate WNLYFQS: 0.0597
- area with substrate YNLYFQS: 0.0627

Variant: L22R
- area with substrate ANLYFQS: 0.0432
- area with substrate CNLYFQS: 0.0406
- area with substrate FNLYFQS: 0.0514
- area with substrate GNLYFQS: 0.0461
- area with substrate HNLYFQS: 0.0435
- area with substrate LNLYFQS: 0.0428
- area with substrate MNLYFQS: 0.0518
- area with substrate NNLYFQS: 0.0446
- area with substrate PNLYFQS: 0.036
- area with substrate SNLYFQS: 0.0477
- area with substrate TNLYFQS: 0.0532

Variant: L22T
- area with substrate ANLYFQS: 0.0638
- area with substrate DNLYFQS: 0.0376
- area with substrate GNLYFQS: 0.0649
- area with substrate HNLYFQS: 0.0432
- area with substrate INLYFQS: 0.0502
- area with substrate LNLYFQS: 0.0497
- area with substrate MNLYFQS: 0.0444
- area with substrate NNLYFQS: 0.0422
- area with substrate PNLYFQS: 0.0174
- area with substrate SNLYFQS: 0.0375
- area with substrate TNLYFQS: 0.0455
- area with substrate VNLYFQS: 0.0364
- area with substrate WNLYFQS: 0.0567

Variant: E25Q
- area with substrate ANLYFQS: 0.0742
- area with substrate CNLYFQS: 0.0589
- area with substrate FNLYFQS: 0.0583
- area with substrate GNLYFQS: 0.073
- area with substrate HNLYFQS: 0.064
- area with substrate LNLYFQS: 0.0607
- area with substrate PNLYFQS: 0.0682
- area with substrate TNLYFQS: 0.0579
- area with substrate WNLYFQS: 0.0624

Variant: E25T
- area with substrate ANLYFQS: 0.0641
- area with substrate CNLYFQS: 0.0801
- area with substrate HNLYFQS: 0.0554
- area with substrate INLYFQS: 0.0674
- area with substrate KNLYFQS: 0.0694
- area with substrate PNLYFQS: 0.0738
- area with substrate WNLYFQS: 0.0573
- area with substrate YNLYFQS: 0.0556

Variant: S26A
- area with substrate ANLYFQS: 0.0461
- area with substrate CNLYFQS: 0.058
- area with substrate FNLYFQS: 0.0571
- area with substrate GNLYFQS: 0.0639
- area with substrate HNLYFQS: 0.0578
- area with substrate INLYFQS: 0.0682
- area with substrate KNLYFQS: 0.0385
- area with substrate LNLYFQS: 0.0675
- area with substrate NNLYFQS: 0.0601
- area with substrate PNLYFQS: 0.0454
- area with substrate QNLYFQS: 0.0772
- area with substrate SNLYFQS: 0.0505
- area with substrate TNLYFQS: 0.0578
- area with substrate WNLYFQS: 0.0408
- area with substrate YNLYFQS: 0.0612
